Among all 310,000 compounds or so, about 2,200 (0.71%) showed an effect of 50% or more. Effects have a minus sign here. The list shows a part of the results.

Chain of human ether-à-go-go-related gene (hERG) potassium channel (Q12809 whole entry, looked up): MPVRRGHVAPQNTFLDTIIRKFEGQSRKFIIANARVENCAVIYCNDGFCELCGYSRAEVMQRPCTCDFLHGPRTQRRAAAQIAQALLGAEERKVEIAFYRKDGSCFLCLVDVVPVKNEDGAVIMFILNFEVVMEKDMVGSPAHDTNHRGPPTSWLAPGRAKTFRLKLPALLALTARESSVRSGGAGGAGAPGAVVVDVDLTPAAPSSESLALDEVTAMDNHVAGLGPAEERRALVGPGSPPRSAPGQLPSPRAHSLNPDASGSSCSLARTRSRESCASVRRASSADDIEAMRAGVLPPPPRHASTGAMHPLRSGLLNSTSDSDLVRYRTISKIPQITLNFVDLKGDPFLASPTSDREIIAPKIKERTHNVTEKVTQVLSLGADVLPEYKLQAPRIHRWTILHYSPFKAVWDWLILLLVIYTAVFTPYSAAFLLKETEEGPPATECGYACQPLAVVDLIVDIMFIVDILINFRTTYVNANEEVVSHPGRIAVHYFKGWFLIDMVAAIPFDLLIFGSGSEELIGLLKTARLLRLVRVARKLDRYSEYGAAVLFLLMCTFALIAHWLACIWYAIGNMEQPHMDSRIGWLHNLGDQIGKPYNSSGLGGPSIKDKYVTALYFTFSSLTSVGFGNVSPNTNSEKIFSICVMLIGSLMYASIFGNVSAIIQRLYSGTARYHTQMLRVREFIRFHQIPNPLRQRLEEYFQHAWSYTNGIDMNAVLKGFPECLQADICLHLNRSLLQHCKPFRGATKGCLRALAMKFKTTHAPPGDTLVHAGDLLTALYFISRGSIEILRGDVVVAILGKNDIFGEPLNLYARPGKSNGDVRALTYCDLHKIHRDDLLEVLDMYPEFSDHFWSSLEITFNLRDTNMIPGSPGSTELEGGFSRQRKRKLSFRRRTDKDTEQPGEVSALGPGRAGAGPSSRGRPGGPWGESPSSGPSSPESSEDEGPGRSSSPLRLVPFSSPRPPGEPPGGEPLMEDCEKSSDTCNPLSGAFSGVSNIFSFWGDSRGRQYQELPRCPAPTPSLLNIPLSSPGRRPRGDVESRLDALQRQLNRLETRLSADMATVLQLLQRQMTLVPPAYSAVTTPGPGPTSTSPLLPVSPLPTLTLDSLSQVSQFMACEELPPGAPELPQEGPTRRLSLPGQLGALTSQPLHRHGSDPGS

The test addresses human ether-à-go-go-related gene (hERG) potassium channel (human, UniProt Q12809). The test can be described thus: primary screen, population patch clamp on CHO cells stably expressing hERG.
For the compound `Cc1cccc(-c2nsc(SCC(=O)NCC3CCCO3)n2)c1` (stereo not drawn), the “hERG current change (%, negative = inhibition) at 1uM” value turned out to be 12.6%. Turning to `C/C(=N\N1CCCCC1)c1ccccc1O`, the “hERG current change (%, negative = inhibition) at 1uM” value stood at 13.2%. Under `CC(/C=N/Nc1nc2ccccc2[nH]1)=C\c1ccccc1` stands -5.45%; under `O=C(CC(Nc1ccccc1)c1ccccc1)C1CC1` (stereo not drawn), 6.83%; under `COc1ccccc1NS(=O)(=O)c1cc(NC(=O)c2sc3cc(Cl)ccc3c2Cl)ccc1C`, 14.1%. Turning to `C=CCc1ccccc1OCC(O)CN(C(C)C)C(C)C.Cl` (stereo not drawn), the “hERG current change (%, negative = inhibition) at 1uM” value was -27.1%. With `CCOC(=O)NN1C(=O)c2ccccc2NC1c1ccc(OC)c(OC)c1` (stereo not drawn), the “hERG current change (%, negative = inhibition) at 1uM” value stood at 21.4%. As for `Cc1nc(-c2cccc(S(=O)(=O)N3CC(C)OC(C)C3)c2)cs1` (stereo not drawn), the figure is -3.83%. Under `CCC(c1nnc(SCC(=O)NC2CCCCC2)n1Cc1ccccc1)N(C)C` (stereo not drawn) stands 3.79%; under `O=C(COC(=O)c1ccccn1)c1ccc(Br)cc1`, 8.41%; under `CC(=O)Oc1ccc(C(=O)Nc2ccccc2C(=O)N2CCCCC2)cc1`, 8.98%.

On to `CCOC(=O)N1CCN(C(=O)CCCn2c(=S)[nH]c3ccccc3c2=O)CC1`, for which the “hERG current change (%, negative = inhibition) at 1uM” value stood at 8.69%. As for `CC(C)(C)OC(=O)NCc1ccc(NC(=O)c2nc[nH]c2C(=O)N[C@@H](Cc2ccccc2)C(=O)OC(C)(C)C)cc1`, the figure is 5.81%; as for `CN(CCNC(=O)c1cccc(N2CCCC2=O)c1)Cc1ccccc1`, 5.8%; as for `CCCCCCn1c(=O)c(C(=O)Nc2cnccn2)c(O)c2ccccc21`, 11.1%. Under `Cc1ccc(-c2csc(N=C(N)N)n2)c(C)c1` stands 12.7%.

Consider `O=S(=O)(c1ccc(Br)s1)N1CCC2(CC1)OCCO2`, for which the “hERG current change (%, negative = inhibition) at 1uM” value was 14.1%. `COCCNC(=O)c1cc(Sc2nnc(C)s2)nc2ccccc12`: the “hERG current change (%, negative = inhibition) at 1uM” value is listed as 2.29%. As for `NC1=NS(=O)(=O)NC1c1ccc(F)cc1` (stereo not drawn), the figure is 11.9%; as for `CC(C)CCN1CC(C(=O)N2CCN(c3ccc(F)cc3)CC2)CC1=O` (stereo not drawn), -6.29%; as for `Cc1cc(NC(=O)CN(C)S(=O)(=O)c2ccc(-c3ccc(=O)[nH]n3)s2)ccc1Br`, 10.7%. Take `CCOc1c2ccc(C(=O)NCCc3ccc(C)cc3)cc2nn1CC`: the “hERG current change (%, negative = inhibition) at 1uM” value is given as 2.41%. Under `Cc1ccccc1NC(=S)N(Cc1cccnc1)Cc1ccco1` stands 8.15%. As for `COc1cccc(C(=O)O/N=C(\N)c2ccc([N+](=O)[O-])cc2)c1OC`, the figure is 6.22%; as for `CC(=O)Nc1ccc(NC(=O)c2cccc(Oc3ccccc3)c2)cc1`, 12%. As for `CCCCC(=O)Nc1sc2c(c1C#N)CC(C)(C)OC2`, the figure is 10.9%. Consider `Cc1ccc(S(=O)(=O)NCC(=O)OC2CCOC2=O)cc1` (stereo not drawn), for which the “hERG current change (%, negative = inhibition) at 1uM” value was 1.01%.

Regarding `C=CCNC(=O)c1c(O)c2cccc3c2n(c1=O)CCC3`, the “hERG current change (%, negative = inhibition) at 1uM” value was determined as 14.3%. As for `COc1ccc(N2CCN(S(=O)(=O)CCNC(=O)/C=C/c3ccccc3)CC2)cc1`, the figure is -5.44%. As for `CC(C)(C)c1ccc(-c2noc(CCC(N)=O)n2)cc1`, the figure is 7.93%.

On to `CSc1nnc(C)c(=O)n1COC(=O)/C=C/c1ccccc1`, for which the “hERG current change (%, negative = inhibition) at 1uM” value turned out to be 7.67%. Under `Cc1ccc(S(=O)(=O)NCCC(=O)NCC(c2cccs2)N2CCOCC2)cc1` (stereo not drawn) stands 2.91%; under `CCN(CC(=O)Nc1c(F)cccc1F)C(=O)CSc1nc2ccccc2o1`, 1.98%.

Turning to `CC(=O)Cc1nsc(NC(=O)c2ccc(-c3ccc(Cl)c(C(F)(F)F)c3)o2)n1`, the “hERG current change (%, negative = inhibition) at 1uM” value is listed as 11.4%.

Consider `CCc1nc(NCCC(C)C)c2nnn(Cc3ccccc3)c2n1`, for which the “hERG current change (%, negative = inhibition) at 1uM” value was 13.4%.

For the compound `CC1CN(CCCOc2ccccc2-c2ccccc2)CC(C)O1.O=C(O)C(=O)O` (stereo not drawn), the “hERG current change (%, negative = inhibition) at 1uM” value is 4.54%. Take `CC(=O)Nc1ccc2c(c1)CCCN2C(=O)c1ccccc1`: the “hERG current change (%, negative = inhibition) at 1uM” value was 10.8%. Under `O=C(Nc1ccc([N+](=O)[O-])cc1)C1(c2ccccc2)CCOCC1` stands -23.7%. As for `O=C(NC(=S)N(Cc1ccccc1)Cc1ccccc1)C1CCCCC1`, the figure is 13.8%. Under `CN(Cc1ccon1)C(=O)CC1C(=O)NCCN1Cc1ccc(F)c(F)c1` (stereo not drawn) stands 6.74%.

As for `CC(C)CC(=O)Nc1ccc2c(c1)nc(CCN1CCCCC1)n2C`, the “hERG current change (%, negative = inhibition) at 1uM” value was 5.78%. As for `CCN1CCN(C(c2cccs2)C(C)NC(=O)c2ccccc2)CC1` (stereo not drawn), the figure is 7.62%; as for `CC1=C(C(=O)OC(C)C)C(C2CC=CCC2)NC(=O)N1` (stereo not drawn), 10.5%. Consider `COc1ccc(CN2CCC(C(=O)N(C)CCc3ccc(OC)c(OC)c3)CC2)c(OC)c1.O=C(O)C(=O)O`, for which the “hERG current change (%, negative = inhibition) at 1uM” value was -18%. As for `Cc1cc(NC(=O)COC(=O)c2cccc(S(=O)(=O)N3CCOCC3)c2)no1`, the figure is 21.3%. Under `COc1ccc(NC(=O)CN2CCN(S(=O)(=O)c3ccc(Br)cc3)CC2)c(OC)c1` stands 25.1%; under `Cc1ccc(S(=O)(=O)N2CCN(CC(=O)N/N=C/c3ccc(C)o3)CC2)cc1`, 2.15%; under `CCCC[n+]1ccn(-c2nc3ccccc3nc2[N-]S(=O)(=O)c2ccc(Cl)cc2)c1`, -0.782%. Under `FC(F)(F)c1cccc(N2CCc3cn[nH]c32)c1` stands -1.93%. Take `CC(C)NC(=O)c1ccccc1NC(=O)CS(=O)(=O)Cc1ccccc1`: the “hERG current change (%, negative = inhibition) at 1uM” value was -3.54%. Under `CC1=C(C(=O)N(C)C)C(c2ccccc2OC(F)F)NC(=O)N1` (stereo not drawn) stands 26.6%; under `Cc1nn(C2CCOC(C)(C)C2)c2c1C(c1ccc(OC(C)C)cc1)SCC(=O)N2` (stereo not drawn), 3.79%; under `Cc1ccc(NC(=O)CSc2nnc(-c3ccc(S(=O)(=O)N4CCCC4)cc3)o2)cc1C`, 2.45%. Under `COc1ccccc1NC(=S)N(c1ccccc1)C(C)C` stands 15.8%; under `CCC(C(=O)Nc1cc(C)nn1-c1nc(C)cc(C)n1)c1ccccc1` (stereo not drawn), -6.6%; under `Cc1ccc(N2C(=O)C3C4C=CC(CC4)C3C2=O)cc1Br` (stereo not drawn), 17.2%.

On to `OCCC1CN(CC#Cc2ccccc2)CCN1C1CCCC1` (stereo not drawn), for which the “hERG current change (%, negative = inhibition) at 1uM” value is -7.79%.

Consider `COc1ccc(C2=NN(C(=O)CCC(=O)O)C(c3cccs3)C2)cc1OC` (stereo not drawn), for which the “hERG current change (%, negative = inhibition) at 1uM” value is recorded as 14.5%. Turning to `COc1ccc(CCNC(=O)CCNC(=O)c2ccccc2Cl)cc1`, the “hERG current change (%, negative = inhibition) at 1uM” value is given as 12.4%. As for `COc1ccc(-n2c(=O)c3ccccc3n(CC(=O)Nc3ccccc3OC)c2=O)cc1`, the figure is 1.61%. As for `CC12CN(Cc3ccccc3)CC(C)(CN(Cc3ccccc3)C1)C2=O`, the figure is 16.1%; as for `O=C(NNC(=S)NCc1ccco1)C(c1ccccc1)c1ccccc1`, 12.8%; as for `COc1ccc(N(CC(=O)N/N=C/c2ccc(-c3ccc([N+](=O)[O-])cc3)o2)S(=O)(=O)c2ccc(C)cc2)cc1Cl`, 11.5%.

As to `CC(Oc1ccc2c(-c3ccccc3)cc(=O)oc2c1)C(=O)O` (stereo not drawn), the “hERG current change (%, negative = inhibition) at 1uM” value is reported as 7.43%.

Turning to `O=C(CSc1ncn[nH]1)NC1CC2CCC1C2` (stereo not drawn), the “hERG current change (%, negative = inhibition) at 1uM” value amounted to 8.56%. With `COc1cc(C2CC(=O)Oc3c(C(CCN4CCCC(C)C4)c4ccc(N(C)C)cc4)c(OC)cc(OC)c32)cc(OC)c1OC` (stereo not drawn), the “hERG current change (%, negative = inhibition) at 1uM” value came to 5.75%. As for `CN(C)c1ccsc1C(=O)NNS(=O)(=O)c1ccc(Cl)cc1`, the figure is 6.96%; as for `OCCNc1cc(-n2nc(-c3ccccc3)cc2-c2ccccc2)ncn1`, 9.58%; as for `Nc1c(C(=O)OCc2ccccc2)c2nc3ccccc3nc2n1Cc1cccs1`, 2.61%. For the compound `Cc1cc(OC(=O)c2cc(Cl)ccc2Cl)c([N+](=O)[O-])c(=O)[nH]1`, the “hERG current change (%, negative = inhibition) at 1uM” value is 5.14%. Under `Cc1cccc(NC(=O)c2ccc(C)c(S(=O)(=O)N3CCCCC3)c2)n1` stands 8.24%; under `Cc1cccc(OCCCC(=O)Nc2nnc(C3CCCO3)s2)c1C` (stereo not drawn), 8.98%. As for `CN(C)N1C(N)=C(C#N)C(c2ccsc2)C2=C1CCCC2=O` (stereo not drawn), the figure is -10.4%. Under `CCCCn1nc2cc(C(=O)NCc3cc(C(F)(F)F)cc(C(F)(F)F)c3)ccc2c1OC` stands 19.3%; under `Cc1ccc(C2(c3ccccc3)NC(=O)N(CC(=O)NCc3ccco3)C2=O)cc1C` (stereo not drawn), -7.95%.

On to `O=C(CSc1ncc(C(F)(F)F)cc1Cl)N1CCN(S(=O)(=O)c2ccc(Cl)cc2)CC1`, for which the “hERG current change (%, negative = inhibition) at 1uM” value turned out to be 12.8%.

With `Cc1cc(C)n2nc(CC#N)c(C#N)c2n1`, the “hERG current change (%, negative = inhibition) at 1uM” value was 9.75%. As for `Cc1ccc(NC(=O)[C@H](Cc2c[nH]c3ccccc23)NC(=O)[C@@H]2Cc3ccccc3CN2)c(C)c1`, the figure is 3.31%; as for `O=C(Nc1ccc(Cl)c(Cl)c1)N1CC=C(c2ccccc2)CC1`, 12.7%; as for `O=C(NNC(=O)C1CCCCC1)c1ccc(Br)cc1`, 15.9%. As for `O=C(N/N=C/C(Cl)=C/c1ccc([N+](=O)[O-])cc1)C(=O)Nc1cccc(C(=O)O)c1`, the figure is 17.2%; as for `Cc1nnsc1Sc1cccc(C(F)(F)F)c1`, 6.03%. With `COc1ccccc1C(=O)N=c1sc2c(C)ccc(OC)c2n1C`, the “hERG current change (%, negative = inhibition) at 1uM” value turned out to be 15.5%. Under `O=C(/C=C/Nc1ccc([N+](=O)[O-])cc1)c1ccc(Br)cc1` stands 2.88%; under `Cn1ncc(Br)c1C(=O)Nc1ccc(F)cc1F`, 13.2%. Under `CN(C)c1ccc(N=Nc2ccccc2C(=O)OCC(=O)NCC2CCCCC2)cc1` stands 3.99%; under `COc1ccc(S(=O)(=O)N2CCC(C(=O)NCCC(=O)Nc3cccc(Cl)c3)CC2)cc1`, 10.7%.

These data come from PMC4336329 (PLoS ONE, 2015).
